The campaign covered roughly 46,000 compounds. About 60 (0.1%) were called active. Inconclusive results (about 3%) are left out. Calls follow the shape of the dose curve; as a rule, active = well fitted inhibition curve with a large enough effect; inconclusive = small, poorly fitted or top-dose-only effect; inactive = no such curve, though single readings can be large or run the other way. This is one part of the list.
Assay: Primary qHTS assay for Inhibitors of ovarian cancer metastasis using an organotypic tumor microenvironment (TME) model. Also: nearly all actives have a fitted effect of over 65% in size.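 As to activity change, negative = inhibition: plate controls were DMSO wells for no effect and tomatine positive control wells for full effect.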
Settings: SKOV3ip1-GFP adhesion/invasion on 3D omental model, fluorescence; series mostly up to 45.8 µM; activity change, negative = inhibition: at the top concentration
How it was run: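 qHTS, 4-pt dose (0.36-46 umol/L); SKOV3ip1-GFP, 1,200 cells/well, no FBS; primary omental fibroblast/mesothelial co-culture 48 h pre-grown; 2 h RT + 16 h 37 C; PBS wash, 4% PFA; GFP count 488/509 nm.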

outcome, inactive:
CCc1ccc(C(=O)c2cn(CC(=O)Nc3ccc(F)c(F)c3)c3cc(OC)c(OC)cc3c2=O)cc1
Cc1cc(NC(=O)c2ccc(Br)o2)cc(-c2nc3ccccc3o2)c1O
Cn1cc(S(=O)(=O)N2CCCCCC2)cc1C(=O)N1CCN(c2ccc(F)cc2)CC1
CCOc1ccc(NC(=O)C(=O)NCCc2csc(-c3ccc(F)cc3)n2)cc1
Cc1cc(=O)n2nc(N3CCC(C(=O)Nc4ccc(C)c(Cl)c4)CC3)sc2n1
CCCCC(CC)CNC(=O)c1ccc2c(=O)n(Cc3ccc(OC)cc3)c(=O)[nH]c2c1 (stereo unspecified)
CCOc1ccccc1NC(=O)c1nnn(CC(=O)Nc2ccc(OC)c(OC)c2)c1N
COc1ccccc1-c1cc(C(=O)N2CCCCC2C)no1 (stereo unspecified)
COc1ccc(OC)c(C(C)NC(=O)Cn2c(=O)cc(C)c3c(C)nn(-c4ccc(C)cc4)c32)c1 (stereo unspecified)
O=C(Nc1ccccc1C(=O)OCc1cc(=O)n2c3c(sc2n1)CCCC3)c1cccc(Cl)c1
CCc1ccccc1NC(=O)NCc1ccc2c(c1)CCN2C(=O)c1ccccc1
CC(C)Cn1cc(NC(=O)N2CCN(c3ccccc3F)CC2)c2ccccc2c1=O
COC(=O)c1cc2oc3ccccc3c2n1Cc1cc(C)ccc1C
COc1ccc(-c2cn3nc(N4CCCC(C(=O)NCc5ccccc5Cl)C4)sc3n2)cc1 (stereo unspecified)
CCN1CCN(C(c2cccc(F)c2)c2c(O)cc(C)n(Cc3ccco3)c2=O)CC1 (stereo unspecified)
CCCN(CCC)C(=O)CSc1nc2sc3c(c2c(=O)n1-c1ccccc1)CCN(C(C)=O)C3
CC(=O)Nc1cccc(NC(=O)c2c(-c3ccccc3)c(-c3ccccc3)nn(C)c2=O)c1
O=c1c2c(-c3ccc(Cl)cc3)ccnc2[nH]n1-c1ccccc1
Cc1ccc(Cl)cc1NC(=O)Cn1c(=O)c2ccccc2n2nncc12
CCC(CC)C(=O)Nc1cccc(-c2nc3ccccc3s2)c1

Activity change, negative = inhibition, inactive:
Cc1ccc(-n2nc(C(=O)N3CCN(c4cc(Cl)ccc4C)CC3)c(=O)n(C)c2=O)cc1 -20.7%
Cc1c(Cl)cccc1NC(=O)CSc1ncnc2c1sc1ccccc12 0.319%
Cc1cccc(CNC(=O)c2oc3c(c2C)-c2nn(Cc4ccccc4Cl)cc2CC3)c1 6.63%
COc1ccc(NC(=O)C(NS(=O)(=O)c2ccc3c(c2)CCCC(=O)N3)C(C)C)c(OC)c1 (stereo unspecified) 4.92%
Cc1cc(C)c(NC(=O)CSc2ccnc(=O)[nH]2)c(C)c1 -4.92%
COc1cc(NC(=O)CCn2c(-c3ccccc3)cc(C(C)=O)c2C)cc(OC)c1 14.6%
Cc1ccc(-n2ncc3c(N4CCCCCC4)ncnc32)cc1 2.96%
O=C(COc1ccccc1)NCc1ccc2c(c1)CCN2C(=O)c1ccc(F)cc1 0.0558%
Cc1ccc(Cn2c(=O)c3cccnc3n(CC(=O)Nc3cccc(C(F)(F)F)c3)c2=O)cc1 -2.89%
NS(=O)(=O)c1ccc(CCNC(=O)C2COc3ccccc3C2)cc1 (stereo unspecified) 2.46%
CCc1ccc(C2CC(=O)c3c([nH]c(C(=O)OCC4CCCCC4)c3C)C2)cc1 (stereo unspecified) 8.23%
Cc1cc(OCC(=O)Nc2ccc(-c3nc4cc(Cl)ccc4o3)cc2)cc(C)c1Cl 1.25%
CCOc1ccc(/C=C/c2nc(C#N)c(N3CCN(c4ccc(OC)cc4)CC3)o2)cc1 8.94%
CCC(=O)N1CCc2cc(Br)cc(S(=O)(=O)CCC(=O)NCCc3ccc(OC)c(OC)c3)c21 -2.21%
COc1ccc(NS(=O)(=O)c2cc3[nH]c(=O)c(=O)[nH]c3cc2C)cc1Cl -0.794%
CCc1cccc(NC(=O)Nc2ccc3c(c2)N(C)C(=O)c2ccccc2S3)c1 -11%
COc1cc(OC)c(NC(=O)CN2C(=O)CCn3nc(-c4cccn4C)cc32)cc1Cl 2.12%
CCN(CC)CC(C)CNC(=O)CN1C(=O)CSc2ccc(S(=O)(=O)N3CCOCC3)cc21 (stereo unspecified) -7.93%
CN(C(=O)C1CCCN(c2ncnc3c2nc2n3CCCCC2)C1)c1ccccc1F (stereo unspecified) 4.68%
CC(C)OCCCn1c(SCc2ccccc2C#N)nc2c(sc3ccccc32)c1=O -5.06%
Cc1ccc(NC(=O)Cc2c(C(=O)O)c(C)cn2C)cc1Cl 2.65%
Cc1c(C)c2c(c(C)c1O)CCC(C)(COc1ccc(CC3SC(=O)NC3=O)cc1)O2 (stereo unspecified) -5.68%
CCSc1ncc(Cl)c(C(=O)Nc2nc3ccc(OC)cc3s2)n1 3.11%
COc1ccc(CNC(=O)Cc2c(C)c3c(cc(C)c4c(C)c(C)oc43)oc2=O)cc1 -2.94%
Cc1ccc(N(Cc2cccs2)C(=O)c2ccc(Br)o2)cc1 -1.35%
Cn1nc(C(=O)NCc2ccc(Cl)cc2)c2c1-c1ccccc1SC2 6.22%
COc1ccc(CNC(=O)CCS(=O)(=O)c2ccc3c(c2)oc(=O)n3C)cc1 2.23%
CCOc1cc(C2c3c(-c4ccc(Br)cc4)n[nH]c3C(=O)N2c2ccc(Cl)cc2)ccc1O (stereo unspecified) -6.89%
CCc1nonc1NC(=O)c1oc2ccccc2c1C -27.5%
CCOC(=O)N1CCC(NC(=O)c2ccc3c(c2)N(Cc2ccc(F)cc2)C(=O)c2ccccc2S3(=O)=O)CC1 2.2%
Cc1ccc(CNC(=O)c2ccc3c(O)c(S(=O)(=O)c4ccccc4)c(=O)[nH]c3c2)cc1 -7.81%
O=C(CSc1nc2ccccc2nc1Cc1ccc(Cl)cc1)NCCc1ccccc1 9.13%
CCOc1ccc(NC(=O)C(NS(=O)(=O)c2ccc3c(c2)CCN3C(C)=O)C(C)C)cc1 (stereo unspecified) -2.15%
COc1ccc(CNC(=O)c2nn(-c3ccccc3C)nc2CO)cc1 3.89%
Nc1c(-c2nc(-c3cccs3)no2)nnn1-c1cccc(Cl)c1 16.7%
CCCCC(=O)Nc1ccc2nc(SCC(=O)N3CCCC3)sc2c1 -2.04%
CN[C@@H]1CN(c2ccc3c(=O)c(C(=O)O)cn(-c4nccs4)c3n2)C[C@@H]1OC -4.73% [at 23.2 µM]
CC=C(C(=CC)c1ccc(O)cc1)c1ccc(O)cc1 -8.67%
COc1cccc(CNC(=O)C(NS(=O)(=O)c2ccc3c(c2)CCN3C(C)=O)C(C)C)c1 (stereo unspecified) -8.13%
CCc1ccc(Nc2ncnc3c2cnn3-c2cc(Cl)ccc2C)cc1 3.22%
CCCn1c2ccccc2c2cnn(CC(=O)NCCc3ccccc3)c(=O)c21 16.8%
COC(=O)c1ccc(Cn2c(=O)cc(C(F)(F)F)c3c(C)nn(C)c32)cc1 -4.3%
Cc1cccc(-c2nc(Cn3c(=O)cc(-c4ccccc4)c4c(C)nn(C)c43)c(C)o2)c1 3.44%
CCn1cc(C(=O)OCC(=O)Nc2ccc(F)cc2F)c(=O)c2ccc(C)nc21 -0.353%
O=C(NCc1ccc(Cl)cc1)C1CCCN(c2nc3ccccc3n3cccc23)C1 (stereo unspecified) -1.77%
O=C(Cn1c2ncccc2c(=O)n1-c1ccccc1)Nc1ccc(F)c(F)c1 4.22%
CCN(c1ccc(OC)cc1)S(=O)(=O)c1ccc2[nH]c(=O)ccc2c1 7.34%
CCOc1ccc(S(=O)(=O)N(CC(=O)NCCSc2ccccc2)c2ccccc2)cc1 18.4%
O=C(CSc1nccn1Cc1ccccc1)NCc1ccccc1Cl -6.69%
CCCn1ccc2c(OCC(=O)NCc3ccccc3Cl)cccc2c1=O 6.05%
Cc1cccc(C)c1Nc1c(-c2ccsc2)nc2ccc(Cl)cn12 6.21%
CCOC(=O)CC(NC(=O)N1CCC(CN2CCC(C)CC2)CC1)c1ccccc1 (stereo unspecified) 4.97%
Cc1cc(C)nc(NS(=O)(=O)c2ccc(NC(=O)COc3ccc(C(C)(C)C)cc3)cc2)n1 -2.63%
COC(c1ccccc1)(c1ccccc1)[C@H](Oc1nc(C)cc(C)n1)C(=O)O 4.58%
Cc1ccccc1CSc1nc2c(sc3ccccc32)c(=O)n1CCCOC(C)C 1.77%
O=c1c(N2CCN(c3cccc(C(F)(F)F)c3)CC2)csc2ccc(Cl)cc12 2.34%
COc1cc(OC)cc(N2CCN(S(=O)(=O)c3ccc(-n4cnnn4)cc3)CC2)c1 -2.17%
Cc1cccc(CNC(=O)CCn2ccc3cc(S(=O)(=O)N4CCCC4)ccc32)c1 -3.57%
COc1ccc(OC)c(CCNC(=O)c2cnn(-c3ccccc3)c2C2CCN(C(=O)OC(C)(C)C)CC2)c1 13.2%
CCSc1nnc2c(n1)OC(CC)N(C(C)=O)c1ccccc1-2 (stereo unspecified) 10.3%
Cc1ccc(-n2nnnc2CNC(=O)C(C)C)cc1C -54%
CC(=O)c1cccc(NC(c2ccc(F)cc2)c2nnc(-c3ccccc3)o2)c1 (stereo unspecified) -1.06%
O=C1CC(c2ccccc2)Cc2[nH]c(=O)c(-c3nc(-c4ccc(Cl)cc4)cs3)cc21 (stereo unspecified) -27.2%
Cc1nn(C)c2c1c(-c1ccccc1)cc(=O)n2C(C)C(=O)NCc1ccc(F)cc1 (stereo unspecified) 0.0038%
CC(O)C1C(=O)N2C(C(=O)O)=C(SC3CNC(C(=O)N(C)C)C3)C(C)C12 (stereo unspecified) -4.41%
CCOCc1cc(CN2CCN(c3cccc(Cl)c3)CC2)c(O)c2ncccc12 -9.21%
CCc1ccccc1NS(=O)(=O)c1ccc2c(c1)OCC(C(=O)N1CCCC1)O2 (stereo unspecified) 21%
CCN(Cc1ccccc1)Cc1c(O)ccc2c(=O)c(-c3ccccc3Cl)c(C(F)(F)F)oc12 1.28%
CCc1ccc(Nc2nc(N)nc(CSc3nc4ccccc4s3)n2)cc1 -15%
COc1ccc(OC)c(C2c3c(oc4ccc(C)cc4c3=O)C(=O)N2CCCN(C)C)c1 (stereo unspecified) -6.07%
O=C(NCc1cccc(F)c1)c1cccc(NC(=O)c2nsc3ccccc23)c1 -2.48%
O=C(NCCC1=CCCCC1)c1ccc2c(c1)ncn2-c1ccc(F)c(F)c1 -7.55%
CC(=O)c1ccc(N2CCN(S(=O)(=O)c3ccc4[nH]c5c(c4c3)CCCC5)CC2)cc1 -2.91%
CCC(C(=O)Nc1cc(-c2nc3cccnc3s2)ccc1C)c1ccccc1 (stereo unspecified) 1.42%
CCOc1ccccc1C1CC(=O)Oc2c1c(=O)n(C)c1ccccc21 (stereo unspecified) 3.76%
CCOc1ccc(-c2nnc(SCC(=O)NCc3ccc(C)cc3)nc2-c2ccc(OCC)cc2)cc1 -7.11%

Reference: PubChem BioAssay AID1963576 (National Center for Advancing Translational Sciences (NCATS), 2024)
